# Experimental data from the supplement of paper PMC11369174, “Proteome-scale characterisation of motif-based interactome rewiring by disease mutations” (Molecular Systems Biology, 2024).
# Some of the results follow. Read counts after selection give these values, which scatter widely.
# T1: PEX14_Pex14__O75381_16_84
# T1 chain: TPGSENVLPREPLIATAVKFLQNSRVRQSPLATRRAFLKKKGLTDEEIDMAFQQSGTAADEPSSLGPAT
# Biological target: OXSR1___O95747_434_527
# Assay: mean normalised NGS count of phage-displayed peptide after selection on bait (% of reads); baits are purified protein domains named by gene / domain / UniProt id / residues; peptides come from disordered regions of human proteins; higher = stronger enrichment / binding
# Conditions: replicate selections in which the peptide was seen: 4
# OXSR1___O95747_434_527, sequence (chain, as listed by the source): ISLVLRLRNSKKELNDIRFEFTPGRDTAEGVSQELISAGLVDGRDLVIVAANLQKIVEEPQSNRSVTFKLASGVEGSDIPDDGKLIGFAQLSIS
row,Binder,mean normalised NGS count
1,RFTVKVTGEPKPEITW [NEXN 600-615 wt],0.213

# Same assay, conditions: replicate selections in which the peptide was seen: 5
row,Binder,mean normalised NGS count
1,REPGKLQFEVQKVDRP [TTN 1952-1967 mut Q8WZ42.H1952R],1.52
2,QEQGRFHIENTDDLTT [TTN 34299-34314 wt],30.1

# Same assay, conditions: replicate selections in which the peptide was seen: 6
row,Binder,mean normalised NGS count
1,LEGKQFTVTKLKENTE [TTN 25985-26000 mut Q8WZ42.Q25986E],4.67
2,LQGKQFTVTKLKENTE [TTN 25985-26000 wt],4.89
3,IHSQEQGRFHIENTDD [TTN 34296-34311 wt],12.6

# Biological target: PDCD6IP_Alix-V-domain__Q8WUM4_360_702
# Assay: as above
# Conditions: replicate selections in which the peptide was seen: 2
row,Binder,mean normalised NGS count
1,EVPKLYPEFPPKDMAE [SPART 109-124 wt],0.0814

# Same assay, conditions: replicate selections in which the peptide was seen: 3
row,Binder,mean normalised NGS count
1,ALYDQLLKQVEALKME [APC 4-19 mut P25054.S5L],30.2

# Same assay, conditions: replicate selections in which the peptide was seen: 5
row,Binder,mean normalised NGS count
1,VYPYLSQFQQDKQQLV [BRCA2 2151-2166 mut P51587.S2152Y],0.658
2,KEAALYPHLPPEADLR [SQSTM1 378-393 mut Q13501.P392L],0.7
3,YPQLTAGYQGLLAIVK [FAM222A 92-107 mut Q5U5X8.H95L],3.1
4,EVPKLYPEFPPKYMAE [SPART 109-124 mut Q8N0X7.D121Y],1.54
5,REKLYPPLPPRWLEVI [TTN 15005-15020 mut Q8WZ42.S15012L],53.5
6,VRSELVRHSSLLALLW [RDH12 233-248 wt],0.189

# Biological target: PDCD6IP_Bro__Q8WUM4_1_359
# Assay: as above
# Conditions: replicate selections in which the peptide was seen: 2
row,Binder,mean normalised NGS count
1,ADALWWGLMTLTTIGY [KCNQ2 265-280 mut O43526.I273M],6.14
2,LAEVFQALEQLGHQAF [RECQL4 466-481 mut O94761.P466L],0.0904
3,MAQMATTAAGVAVGSA [CHCHD2P9 56-71 wt],0.0449
4,MAQMATTAAGVAVGSA [CHCHD10 56-71 wt],0.0449
5,MAQMATTAAGVAVGSA [CHCHD2 56-71 wt],0.0449

# Same assay, conditions: replicate selections in which the peptide was seen: 3
row,Binder,mean normalised NGS count
1,ADAFWWGLITLTTIGY [KCNQ2 265-280 mut O43526.L268F],20.4

# Biological target: T1, PEX14_Pex14__O75381_16_84
# Assay: as above
# Conditions: replicate selections in which the peptide was seen: 2
row,Binder,mean normalised NGS count
1,QQRAAPGEPGWMGRLW [CACNA1H 764-779 wt],0.00449
2,PDWMGRLWVTFSGKLR [CACNA1H 772-787 mut O95180.G773D],0.0717
3,LIEFRVLAGEWIETMW [SCN1A 942-957 mut P35498.V944E],0.472
4,KWVAYDYQTYFTNAWA [SCN1A 1270-1285 mut P35498.G1275D],0.0629
5,PSEDKASKVFFSYRAD [SLC12A3 308-323 mut P55017.G316V],3.77
6,SYWADIFVQNLVPDWR [SLC12A3 319-334 mut P55017.R321W],0.124
7,TVGLAQQWDQLDQLGM [SPTAN1 2287-2302 wt],0.00546
8,LIEFRVLAGEWIETMW [SCN9A 942-957 mut P35498.V944E],0.472
9,LAMLRSLDLEGLWSTL [BRAT1 773-788 mut Q6PJG6.R785W],0.00276
10,LEGLWSTLAESSDHVE [BRAT1 781-796 mut Q6PJG6.R785W],0.00844
11,TFSEELANLYHHVWMA [BICD2 529-544 mut Q8TD16.C542W],0.157
12,DGGEEGMDEQYWQIAN [NACC1 287-302 mut Q96RE7.R298W],0.00384
13,LIEFRVLAGEWIETMW [SCN2A 942-957 mut P35498.V944E],0.472
14,LIEFRVLAGEWIETMW [SCN3A 942-957 mut P35498.V944E],0.472
15,QTQQHSGWVSQFNPMN [TAB2 228-243 wt],0.0321
16,LIEFRVLAGEWIETMW [SCN8A 942-957 mut P35498.V944E],0.472

# Same assay, conditions: replicate selections in which the peptide was seen: 3
row,Binder,mean normalised NGS count
1,KVKEPEPQYFRFEGVW [KMT2D 1576-1591 wt],0.103
2,ADALWWGLITLTTNGY [KCNQ2 265-280 mut O43526.I278N],0.0609
3,EQKEMMEKAWEAYNQG [PRPF6 720-735 mut O94906.R729W],0.0976
4,LRTDLTEAWVQVWFQN [ALX3 188-203 mut O95076.R196W],0.0365
5,EFESRLADALQELWAQ [LMNA 236-251 mut P02545.R249W],0.016
6,SLDYGSAWAAAAAQAR [AR 392-407 mut P10275.P392S],0.357
7,AQSRFIFFVDIWTTVL [KCNJ1 58-73 wt],1.88
8,EAGLVEEFLLTDNSAI [POLG 672-687 mut P54098.A676V],0.0259
9,TLEEEAVSVQWEEEYE [TTN 10658-10673 mut Q8WZ42.R10668W],0.0559
10,EAVSVQWEEEYEEYEE [TTN 10662-10677 mut Q8WZ42.R10668W],0.0776
11,DILEHDWREVQDSRQE [CARD10 319-334 mut Q9BWT7.A328V],0.0324

# Same assay, conditions: replicate selections in which the peptide was seen: 4
row,Binder,mean normalised NGS count
1,TDSIPATWKQEYVDYS [DKC1 405-420 mut O60832.T408I],0.0411
2,LATWKQEYVDYSESAK [DKC1 409-424 mut O60832.P409L],0.0462
3,PATWKQEYVDYSESAK [DKC1 409-424 wt],0.0457
4,MNLDLLQEHSDEAIWA [ABCC6 1358-1373 wt],0.0145
5,KLENRLDYGSAWAAAA [AR 388-403 mut P10275.P392R],0.021
6,MPAWGALFLLWATAEA [GP9 1-16 wt],0.0735
7,SWLASYLDKVQALEEA [KRT9 162-177 mut P35527.R163W],0.435
8,HSEFSEVMNEIWASDQ [HADHA 69-84 wt],0.0655
9,LQLEWISVYYNEASSH [TUBB3 42-57 mut Q13509.R46W],0.119
10,RSLDLEGLWSTLAESS [BRAT1 777-792 mut Q6PJG6.R785W],0.0261
